In the test the target is Flag-NPM/B23 (UniProt P06748). Nature of the test: co-IP; 293T cells transfected with Flag-NPM/B23 and Myc-Plk2 KD or with Myc-Plk2 KD alone; anti-Flag or anti-Myc immunoprecipitation; lysis buffer 40 mM Tris-HCl pH 7.5, 0.5% NP-40, 150 mM NaCl; Western blot. (In general: A western blot detects proteins with antibodies after separation by electrophoresis.)

By UniProt entry, the sequences of proteins in these tests, tags left out.
UniProt P06748: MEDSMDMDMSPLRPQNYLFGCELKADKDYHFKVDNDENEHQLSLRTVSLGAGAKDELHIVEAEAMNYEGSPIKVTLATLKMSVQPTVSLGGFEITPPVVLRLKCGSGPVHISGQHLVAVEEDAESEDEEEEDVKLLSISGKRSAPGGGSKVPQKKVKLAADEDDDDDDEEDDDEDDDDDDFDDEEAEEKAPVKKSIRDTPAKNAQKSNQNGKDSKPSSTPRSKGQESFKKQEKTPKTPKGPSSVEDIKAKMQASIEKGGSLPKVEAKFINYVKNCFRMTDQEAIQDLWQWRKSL

Results are given in words; binding and its absence hold for the method and conditions named. In cells and extracts the contact can be indirect. Some binding calls cover weakened binding; strength is not graded here. Where a sequence is shown, tags or fusion partners need not be part of it.

B1: Myc-Plk2 KD (enzyme, UniProt Q9NYY3 1-685)
chain: MELLRTITYQPAASTKMCEQALGKGCGADSKKKRPPQPPEESQPPQSQAQVPPAAPHHHHHHSHSGPEISRIIVDPTTGKRYCRGKVLGKGGFAKCYEMTDLTNNKVYAAKIIPHSRVAKPHQREKIDKEIELHRILHHKHVVQFYHYFEDKENIYILLEYCSRRSMAHILKARKVLTEPEVRYYLRQIVSGLKYLHEQEILHRDLKLGAFFINEAMELKVGDFGLAARLEPLEHRRRTICGTPNYLSPEVLNKQGHGCESDIWALGCVMYTMLLGRPPFETTNLKETYRCIREARYTMPSSLLAPAKHLIASMLSKNPEDRPSLDDIIRHDFFLQGFTPDRLSSSCCHTVPDFHLSSPAKNFFKKAAAALFGGKKDKARYIDTHNRVSKEDEDIYKLRHDLKKTSITQQPSKHRTDEELQPPTTTVARSGTPAVENKQQIGDAIRMIVRGTLGSCSSSSECLEDSTMGSVADTVARVLRGCLENMPEADCIPKEQLSTSFQWVTKWVDYSNKYGFGYQLSDHTVGVLFNNGAHMSLLPDKKTVHYYAELGQCSVFPATDAPEQFISQVTVLKYFSHYMEENLMDGGDLPSVTDIRRPRLYLLQWLKSDKALMMLFNDGTFQVNFYHDHTKIIICSQNEEYLLTYINEDRISTTFRLTTLLMSGCSSELKNRMEYALNMLLQRCN
For the molecule B1, the binding result is “binds”.

Source of the values: PMC2844433.
